# Laboratory results published in PubChem BioAssay AID1346428 (National Center for Advancing Translational Sciences (NCATS), 2018).
# About 1,200 (2.5%) of roughly 48,000 compounds were called active. Another 2% or so got no clear call; they are omitted.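 The calls were made as follows: active = activation of at least 60% and not above a set upper limit (about 1 call in 100 departs from these limits); inconclusive = activation of 40% to 60%, or above that upper limit; inactive = activation under 40%.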 The list shows a part of the results.
# Target: Probable G-protein coupled receptor 32 (Homo sapiens) (UniProt O75388)
# Test: qHTS for Agonists of Human Resolvin D1 Receptor DRV1; also: 0% is about no effect
# Settings: CHO-K1 GPR32 beta-arrestin PathHunter luminescence, 90 min; at 76.9 µM; active compounds read high; zero percent set by DMSO-only wells
# How it was run: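 GPR32 activation in stably transfected CHO-K1 cells, detected as beta-arrestin recruitment by enzyme-fragment complementation. Compound exposure: 90 min, 37 °C.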
# UniProt O75388, sequence (O75388 whole entry, looked up): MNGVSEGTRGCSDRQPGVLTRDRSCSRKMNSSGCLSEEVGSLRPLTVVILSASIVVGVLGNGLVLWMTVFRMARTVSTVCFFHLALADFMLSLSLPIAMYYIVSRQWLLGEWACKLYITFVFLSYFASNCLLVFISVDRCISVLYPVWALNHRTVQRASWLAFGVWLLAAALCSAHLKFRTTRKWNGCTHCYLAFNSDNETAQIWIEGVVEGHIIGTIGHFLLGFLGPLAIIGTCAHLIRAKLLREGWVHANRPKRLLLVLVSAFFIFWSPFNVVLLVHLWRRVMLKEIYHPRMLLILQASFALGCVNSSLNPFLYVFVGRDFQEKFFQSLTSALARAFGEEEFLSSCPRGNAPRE
row,SMILES,activation
1,CCOC(=O)c1ccc(NC(=O)C2CCN(S(=O)(=O)Cc3ccccc3)CC2)cc1,inactive: -19.6%
2,CCOc1ccc(NC(=O)c2sc3nc4n(c(=O)c3c2C)CCCC4)cc1,inactive: 12.3%
3,Cc1cc(C)cc(NC(=O)CSc2oc(-c3cccs3)nc2S(=O)(=O)c2ccc(Br)cc2)c1,inactive: -0.312%
4,CCOc1ccc(N(CC)C(=O)c2cc3c(s2)-c2ccc(Cl)cc2SC3)cc1,inactive: -13%
5,Cc1cccc(NC(=O)c2ccc(F)c(S(=O)(=O)NCc3ccc4c(c3)OCO4)c2)c1,inactive: -13.6%
6,Cc1ccc(C(=O)NCCSc2c[nH]c3ccccc23)cc1C,inactive: -10.5%
7,Cc1ccn2c(Nc3ccc4c(c3)OCO4)c(-c3ccc(C)o3)nc2c1,inactive: -14.3%
8,CCc1ccc(NCc2cc3ccc(OC)cc3n(CC(=O)Nc3ccccc3OC)c2=O)cc1,inactive: -7.47%
9,COC(=O)c1sc2cccc(F)c2c1S(=O)(=O)NC(C)c1ccccc1 (stereo not drawn),inactive: -20.1%
10,CC(=O)NC(=O)c1ccccc1O,inactive: -8.43%
11,COc1ccc(NC(=O)C2(S(=O)(=O)c3ccc(C)cc3)CC2)c(OC)c1,inactive: -18.9%
12,CCOC(=O)C1CCN(C(=O)c2ccc3c(=O)n4nc(Nc5ccccc5)sc4nc3c2)CC1,inactive: -13.2%
13,COc1ccc(-c2c(C)c3ccc(O)c(CN4CCCCC4C)c3oc2=O)cc1OC (stereo not drawn),inactive: -7.74%
14,CCCN(CCC)C(=O)Cn1c(=O)n(-c2ccc(CC)cc2)c(=O)c2c3c(sc21)CCC3,inactive: -13.7%
15,COc1cc(O)ccc1-c1nc2ccc(Br)cn2c1Nc1ccccc1C,inactive: -9.4%
16,CCSc1ncc(Cl)c(C(=O)Nc2ccc(S(=O)(=O)N3CCCCC3CC)cc2)n1 (stereo not drawn),inactive: -3.84%
17,CCOc1ccc(NC(c2ccc(Cl)cc2)c2nnc(-c3cccc(F)c3)o2)cc1 (stereo not drawn),inactive: -7.3%
18,Cc1ccc(CN(C(=O)COc2cccc(Cl)c2)c2ccccn2)o1,inactive: 7.46%
19,CCCOC(=O)c1ccc(NC(=O)C2CC(=O)N(c3ccc(C)cc3)C2)cc1 (stereo not drawn),inactive: 38.7%
20,O=C(CSc1nccn1Cc1ccc(F)cc1)NC1CCCC1,inactive: -3%
21,O=C(Nc1ccccc1F)C(c1ccccc1)N1Cc2ccccc2C1=O (stereo not drawn),inactive: -17.1%
22,COc1cccc(CNc2ncnc3c2nnn3C)c1,inactive: 3.44%

row,SMILES,activation
1,CNC(=O)C1CCC(Cn2c(=O)c3sccc3n(CC(=O)N3CCCC3)c2=O)CC1 (stereo not drawn),inactive: -15.2%
2,Cc1cccc2cc(CN(C(=O)c3cccc(Cl)c3)c3ccccc3)c(=O)[nH]c12,inactive: -2.45%
3,COc1cccc(C2CC(=O)Nc3c2c(=O)[nH]c2ncnn32)c1OC (stereo not drawn),inactive: 12.1%
4,CCc1nc(N)nc(N)c1-c1ccc(Cl)cc1,inactive: 2.09%
5,O=C(C1CCN(S(=O)(=O)c2ccc(Br)s2)CC1)N1CCN(c2ccc(F)cc2)CC1,inactive: -4.52%
6,COc1ccccc1C(=O)Nc1cccc(OCc2cc(=O)n3c4c(sc3n2)CCCC4)c1,inactive: -2.01%
7,COc1ccccc1Nc1nn2c(=O)c3ccc(C(=O)NC4CCC(C)CC4)cc3nc2s1 (stereo not drawn),inactive: -3.39%
8,CCOc1ccc(C2C(C(N)=O)=C(C)Nc3nc(-c4ccc(OC)cc4)nn32)cc1 (stereo not drawn),inactive: -13.7%
9,O=C(NCC(c1ccc2c(c1)OCO2)N1CCN(c2ccccc2)CC1)C(=O)Nc1ccccc1 (stereo not drawn),inactive: 7.97%
10,CC(C)c1ccc(S(=O)(=O)c2nnn3c2nc(NCc2cccs2)c2sccc23)cc1,inactive: -14.9%
11,CC(=O)Nc1ccc(OC(=O)c2ccccc2OC(C)=O)cc1,inactive: -4.69%
12,c1ccc2sc(SN3CCOCC3)nc2c1,inactive: 4.23%
13,O=c1c2sc3ccccc3c2n(Cc2ccc(F)cc2)c(=O)n1Cc1ccco1,inactive: -6.32%
14,Cc1cc2ccccc2n1CCNC(=O)c1ccccc1F,inactive: 27.1%
15,O=C(OCc1cc(=O)n2nc(C3CC3)sc2n1)c1ccc(NC(=O)c2ccccc2Cl)cc1,inactive: -3.81%
16,Cc1c(C(=O)Nc2ccccc2)sc2nc(-c3cc4ccccc4oc3=O)[nH]c(=O)c12,inactive: -0.0092%
17,CCc1ccc2oc(C(=O)Nc3cc(Cl)ccc3OC)cc(=O)c2c1,inactive: -8.42%
18,O=C(Nc1cccc(C(=O)N2CCN(c3ccccc3)CC2)c1)c1nsc2ccccc12,inactive: -4.28%
19,CCc1ccc(C2=C(C)C(N3CCC(C(=O)Nc4ccc(F)cc4)CC3)=NS2(=O)=O)cc1,active: 74%
20,Fc1ccc(Nc2nc(-c3cccc(Cl)c3)c3c(n2)-c2ccccc2OC3)cc1,inactive: -0.453%
21,Cc1ccc(NC(=O)CCn2nc(-c3ccccc3)c3ccccc3c2=O)c(C)c1,inactive: 29.3%
